The supplement of paper PMC3334620
The full ranking holds about 33,000 sequences; the median of “E-score (-0.5 to 0.5)” is about -0.032, and the highest 2% start at about 0.36. The list shows a part of the results.

target: T1, Sko1 (UniProt Q02100); test: PBM E-score (8-mer binding enrichment) (E-score (-0.5 to 0.5)); higher = stronger / more preferred TF binding; most listed sequences are background and not binding sites; settings: protein concentration: 200 nM; construct: GST-full length
T1 sequence: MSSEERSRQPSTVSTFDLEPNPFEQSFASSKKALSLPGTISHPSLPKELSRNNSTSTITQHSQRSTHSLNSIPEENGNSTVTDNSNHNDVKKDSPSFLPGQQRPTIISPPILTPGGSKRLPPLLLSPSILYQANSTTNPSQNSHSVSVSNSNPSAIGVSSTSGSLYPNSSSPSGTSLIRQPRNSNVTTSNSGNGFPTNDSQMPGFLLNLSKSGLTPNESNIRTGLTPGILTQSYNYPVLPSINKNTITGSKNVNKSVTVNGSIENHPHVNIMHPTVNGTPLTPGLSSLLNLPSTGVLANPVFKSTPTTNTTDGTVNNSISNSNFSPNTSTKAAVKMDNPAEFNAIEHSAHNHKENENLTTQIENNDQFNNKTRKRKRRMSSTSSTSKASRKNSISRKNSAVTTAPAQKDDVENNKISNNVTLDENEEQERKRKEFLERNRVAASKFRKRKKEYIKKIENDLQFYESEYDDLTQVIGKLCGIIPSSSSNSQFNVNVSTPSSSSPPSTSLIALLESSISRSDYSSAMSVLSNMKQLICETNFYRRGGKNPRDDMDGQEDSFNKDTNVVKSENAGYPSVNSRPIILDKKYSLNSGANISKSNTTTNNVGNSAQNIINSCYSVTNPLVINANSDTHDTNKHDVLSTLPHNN
In short: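 E-scores (a modified Wilcoxon-Mann-Whitney statistic) were assigned by the Universal PBM Analysis Suite to every ungapped eight-base word pooled with its reverse complement. The input came from universal all-10-mer Agilent arrays made double-stranded by primer extension and probed with GST-tagged yeast transcription factors at about 100-200 nM. Fluorescent anti-GST detected bound protein, and masliner normalised the scans.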

Sequence	PBM E-score
AGTCGTCC	-0.114
AAGCATAC	0.0976
ACTGCCAC	-0.156
CCAACCGG	-0.161
AGTTCCTC	-0.183
TGGACCAA	-0.0668
ATAGACAC	0.0427
GATTCGAA	0.0666
GCCGATCA	-0.0181
ACTAATTA	0.334
AGATACAC	0.124
ACCGGGCT	-0.237
AGATTGCT	-0.111
CATCACAC	0.245
CACCATCC	-0.195
GAACAATC	0.132
AAATCAGC	0.103
AGTGATGC	0.146
GTTGAATA	0.129
CATGCAGG	-0.178
CTTCGCCC	-0.244
ATATCCAC	-0.0811
AAATGAGC	0.0483
ATTCGGCG	-0.244
AGGCGTAT	0.2

Sequence	PBM E-score
CGTACCTC	0.0538
GGCGAACA	-0.186
CAACGCAA	0.195
CCCGGCGG	-0.326
CGTCGTCC	-0.0443
GCTAACAC	0.094
ACATGGGG	-0.1
CCCATAAG	-0.23
AATGGCTA	0.0457
ACCCTAGG	-0.112
AGCCTCCT	-0.223
GGGTATGA	0.0602
CCAAAAGA	0.161
CACCGACG	0.217
GTTAGCAA	0.176
AGGCGAGC	-0.219
TCGTGAGA	-0.0852
AACCAGGC	-0.0446
CTCGCACC	-0.104
AAAGGCGC	-0.116
TCAAGTCA	0.0132
GTCCGGCA	-0.136
AAGAATTC	0.0539
GTCTGAAC	-0.105
ACGTTTTC	0.396

Sequence	PBM E-score
AAGGCGAA	-0.191
ATTAAAAA	0.263
AGGCAACC	-0.234
CCAGTGAC	0.053
ACCGGCAT	-0.0631
ATATGAAC	0.204
GTCACGGA	0.126
CAGATTGG	-0.256
ATATGGGG	-0.185
AAGATACA	0.227
AAGAAGTA	0.125
ATGGGGGC	-0.256
CAGTCCCC	-0.189
GGTCTGTA	-0.151
AGAGAGCG	-0.211
CACCAAGC	-0.208
CACAAATG	0.0399
ACTAGACG	0.197
CAACGGAA	0.146
GCGGACCC	-0.294
GTACGGCA	0.0279
GCTAGTGA	0.132
CGGCGCAG	-0.153
ACCCTCAT	-0.158
AGTACCAC	-0.0712

Sequence	PBM E-score
CCGGTTAG	-0.0983
ATACTCCG	-0.0889
AACGAGTG	0.0243
TAACAGGA	0.149
GCCGATAC	-0.077
CGAAATGC	0.0319
CACGCATC	0.164
ACCCCCCT	-0.392
CAACAATA	0.163
TACTGTCA	0.0461
AGGATTCA	0.048
CTACCGAA	-0.0488
CTCCAAGA	-0.189
CTGGAGTC	-0.208
CGCCTAAC	-0.145
ACTTCCCG	-0.215
GGCTAGTA	-0.116
AGTTAGGA	0.078
ACCCTCGT	0.0494
AATTGCGC	0.3
CATGGTAA	0.158
CTTTCCAC	0.00853
ACGTATAC	0.463
GTGCGACA	0.0366
AGGAATGA	0.135

Sequence	PBM E-score
ACGCAAGT	0.315
AGTTAGTC	-0.103
CGCGGGAC	-0.281
CATGGCAC	-0.0589
CGTATCGA	0.34
CGTGGGCA	0.0649
CGTGAGAA	0.117
CCACTCGA	-0.143
AACATTGA	0.00267
CACTTCCG	-0.112
GTTGCCTA	-0.0373
CTGCCGCC	-0.36
CAAGTTGA	0.0254
GACCATCA	-0.0829
AAAGTTAA	0.314
ACTTATAC	0.155
AAGTAAGT	0.0641
AACGGCAG	-0.125
CAATTCTC	0.0836
GATCTCGC	-0.102
ATTGTGTC	0.157
ATAGAAAG	-0.115
GTTGGACA	0.166
ATACCGCG	-0.0398
ATTTATTG	0.0213

Sequence	PBM E-score
GAGCGCTC	-0.238
TACTATGA	0.256
AGTCGGAC	-0.125
ATACCAAA	0.093
CCCCGCCC	-0.0456
CCGATTTC	-0.355
AACTTCTC	0.0726
ACAGATAG	0.0196
ATGCACTC	-0.098
GCTGGGTA	-0.301
AACAGTAT	0.216
ACTTATGG	-0.108
CCATTGAG	0.00857
AACGTTCC	0.0527
GGAGTTTA	-0.0493
CTTGAGAA	0.107
ATTTCGTA	0.372
TCCTACGA	-0.0486
TTCCCGAA	-0.0959
AGTGGGGA	-0.201
AAGCTCTC	-0.279
AGTTACTC	0.0295
ATATTTTG	0.157
ACTGTGTA	-0.0944
ACGCTATA	0.132

Sequence	PBM E-score
AAATTGAC	0.164
CCTTTTAG	-0.16
ATATATAA	0.22
ATGTCTCA	-0.0854
CCCGTATA	-0.0573
ACTCTGCT	-0.197
CCACACTC	0.00961
ATGCGAGC	-0.0993
ATACAAAA	0.216
GCACGTAC	0.34
ACACTTTC	-0.077
GCTGTGTA	0.0368
CTCTAAGC	-0.0238
ACAAAGAC	0.0779
CCCCCTCA	-0.35
CATAGGGA	-0.11
CCGAATAG	-0.145
ACCTAGGC	-0.177
CATCAGTC	-0.153
ACGTGGAT	0.398
ACGCAGTG	0.15
ACCCCAAC	-0.084
